Experimental data reported in article PMC4336329 (PLoS ONE, 2015).
In all, about 310,000 compounds went through this assay and about 2,200 (0.71%) showed an effect of 50% or more. Effects have a minus sign here. Some of the results follow.

target: human ether-à-go-go-related gene (hERG) potassium channel (human, UniProt Q12809); assay: primary screen, population patch clamp on CHO cells stably expressing hERG
Sequence (Q12809 whole entry, looked up): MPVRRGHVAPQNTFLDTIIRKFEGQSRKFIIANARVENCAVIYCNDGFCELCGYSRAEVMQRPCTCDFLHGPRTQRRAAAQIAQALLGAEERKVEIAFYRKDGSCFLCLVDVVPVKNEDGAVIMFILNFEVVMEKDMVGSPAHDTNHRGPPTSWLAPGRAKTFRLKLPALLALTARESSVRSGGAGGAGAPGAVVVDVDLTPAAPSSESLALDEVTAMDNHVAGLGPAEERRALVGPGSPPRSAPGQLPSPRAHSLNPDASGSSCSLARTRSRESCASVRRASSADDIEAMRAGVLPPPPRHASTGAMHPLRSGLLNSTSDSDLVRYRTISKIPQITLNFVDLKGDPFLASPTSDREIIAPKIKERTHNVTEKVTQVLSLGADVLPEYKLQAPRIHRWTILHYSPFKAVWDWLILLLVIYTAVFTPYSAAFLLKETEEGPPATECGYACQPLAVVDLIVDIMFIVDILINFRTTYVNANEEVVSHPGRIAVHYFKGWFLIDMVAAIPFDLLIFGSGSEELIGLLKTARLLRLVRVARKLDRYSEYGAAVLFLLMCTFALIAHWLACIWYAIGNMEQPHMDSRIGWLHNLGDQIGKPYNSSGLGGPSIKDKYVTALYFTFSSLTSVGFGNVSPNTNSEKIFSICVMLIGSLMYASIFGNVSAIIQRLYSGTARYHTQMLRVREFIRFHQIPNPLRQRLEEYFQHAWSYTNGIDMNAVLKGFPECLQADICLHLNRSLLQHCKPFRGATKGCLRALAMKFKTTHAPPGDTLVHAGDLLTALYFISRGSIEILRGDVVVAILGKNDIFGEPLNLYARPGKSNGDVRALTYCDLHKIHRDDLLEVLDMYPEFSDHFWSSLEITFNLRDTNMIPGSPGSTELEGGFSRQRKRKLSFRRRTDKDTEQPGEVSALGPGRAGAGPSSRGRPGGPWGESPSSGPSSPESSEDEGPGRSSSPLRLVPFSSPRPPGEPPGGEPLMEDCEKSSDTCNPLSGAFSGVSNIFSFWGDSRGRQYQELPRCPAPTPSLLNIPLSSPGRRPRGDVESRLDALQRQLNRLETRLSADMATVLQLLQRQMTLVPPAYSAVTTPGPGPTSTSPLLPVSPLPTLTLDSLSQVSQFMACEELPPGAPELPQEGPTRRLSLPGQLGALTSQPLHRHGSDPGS

| Compound | hERG current change (%, negative = inhibition) at 1uM [%] |
| --- | --- |
| C/C(=N\OCC(=O)Nn1c(=O)[nH]c2ccccc2c1=O)c1cccs1 | -5.65 |
| CCCc1cc(C(=O)Nc2ccc(F)c(Cl)c2)no1 | 6.56 |
| CSc1nc2ccccc2c(=O)n1N | 15.6 |
| Cc1ccc2cc(S(=O)(=O)NCCCC(=O)O)ccc2c1 | 11.8 |
| COCCN1C(=O)N(c2cccc(OC)c2)C(=O)C1CC(=O)Nc1ccc(Cl)cc1 (stereo not shown) | 9.61 |
| Cc1c(Cl)cccc1NC(=O)COC(=O)CN1C(=O)NC(C)(C)C1=O | 9.16 |
| CCOC(=O)/C(C#N)=N/Nc1c(C)n(C)n(-c2ccccc2)c1=O | 15.3 |
| COc1ccc(C(CNC(=O)c2cccc(S(=O)(=O)Nc3ccccc3Cl)c2)N2CCOCC2)cc1 (stereo not shown) | 8.19 |
| CC(C)c1ccc(CNC(=O)C2CCCN2S(=O)(=O)c2ccccc2)cc1 (stereo not shown) | 15.3 |
| Cc1cc(=O)oc2c(CN(C)Cc3ccccc3)c(O)ccc12 | 1.88 |
| CCOC(=O)/C(=N/Nc1ccc(Cl)cc1)Sc1nnnn1-c1ccc(C)cc1 | 17.7 |
| CCC(=O)Nc1ccc(NC(=O)c2ccccc2)nc1 | -4 |
| COc1cccc(CNc2ccc(F)c(Cl)c2)c1OC | 11.3 |
| CCCS(=O)(=O)C(=C(Nc1ccc(OC)cc1)Nc1ccc(OC)cc1)S(=O)(=O)CCC | 9.08 |
| COc1ccc(C(=O)CC(=O)C(=O)Nc2cccc(C(C)=O)c2)cc1 | 15.4 |
| O=C(c1ccccc1)N1CCN(C(=O)N2CCCCC2)CC1 | 15.4 |
| CCOc1cccc(C2C(C#N)=C(N)Oc3cc(C)oc(=O)c32)c1OCC (stereo not shown) | -1.41 |
| CCCC(=O)NC(Oc1ccc(OC)cc1)C(Cl)(Cl)Cl (stereo not shown) | -3.93 |
| CCC(C)[C@H](NC(=O)NCc1ccc(S(N)(=O)=O)cc1)C(=O)OC (stereo partly shown) | 0.835 |
| Nc1nc(SCC(=O)NC2CCCC2)[nH]c(=O)c1NC(=O)c1cccs1 | 5.17 |
| O=C1C2CCCN2C(c2ccccc2)N1c1ccccn1 (stereo not shown) | 11.9 |
| Cc1cccc(NC(=S)NC2CC3CCCC(C2)N3Cc2cccs2)c1C (stereo not shown) | -6.58 |
| CCC(c1nnc(SCC(=O)Nc2ccc(C(C)=O)cc2)n1C1CCCCC1)N(C)C (stereo not shown) | 0.027 |
| C=CCN(C(=O)c1ccccn1)C(C(=O)NCc1ccccc1)c1ccccc1F (stereo not shown) | 12.1 |
| C=CCc1ccc(OCCOCCOc2ccc(C)cc2[N+](=O)[O-])c(OC)c1 | 2.58 |
